Test results published in patent publication US20220324876A1, “4-SUBSTITUTED PYRANO[3,4,b]PYRAZINE KAPPA AGONISTS FOR TREATING DRUG DEPENDENCY” (The Rockefeller University, priority 2019, published 2022).

These compounds were tested against kappa opioid receptor (KOP-R, hOPRK1) (Homo sapiens, UniProt P41145) (assay: biochemical). Conditions: not given.
Chain of UniProt P41145 (P41145 whole entry): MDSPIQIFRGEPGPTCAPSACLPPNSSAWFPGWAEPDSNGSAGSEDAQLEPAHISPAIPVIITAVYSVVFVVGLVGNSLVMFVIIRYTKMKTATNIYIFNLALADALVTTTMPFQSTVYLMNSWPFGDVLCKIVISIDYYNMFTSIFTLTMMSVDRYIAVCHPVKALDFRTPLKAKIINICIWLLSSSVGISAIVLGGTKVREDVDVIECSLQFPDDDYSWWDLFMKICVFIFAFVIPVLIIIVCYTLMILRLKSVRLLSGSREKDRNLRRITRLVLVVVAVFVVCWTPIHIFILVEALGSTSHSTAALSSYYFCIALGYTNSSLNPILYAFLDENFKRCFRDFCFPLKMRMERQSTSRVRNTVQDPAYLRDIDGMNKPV
Compound `Cn1ccc(CN2CCN(C(=O)Cc3ccc(Cl)c(Cl)c3)[C@H]3[C@H]2COC[C@@H]3N2CCCC2)n1` (single isomer, unassigned) [Example 5A135A] has an IC50 of 123 nM. Compound `O=C(Cc1ccc(Cl)c(Cl)c1)N1CCN(CC2CCS(=O)(=O)CC2)[C@@H]2COC[C@H](N3CCCC3)[C@H]21` (racemic) [rac-5A85] has an IC50 of 1070 nM. Compound `O=C(Cc1ccc(Cl)c(Cl)c1)N1CCN(C(=O)C2(O)CCOC2)[C@H]2COC[C@@H](N3CCCC3)[C@@H]21` (single isomer, unassigned) [Example 5A139B] has an IC50 of 1700 nM. Compound `Cn1cc(CN2CCN(C(=O)Cc3ccc(Cl)c(Cl)c3)[C@H]3[C@H]2COC[C@@H]3N2CCCC2)cn1` (racemic) [rac-5A79] has an IC50 of 177 nM. `O=C(Cc1ccc(Cl)c(Cl)c1)N1CCN(CC2CCOCC2)[C@@H]2COC[C@H](N3CCCC3)[C@H]21` (racemic) [rac-5A84] gave an IC50 of 423 nM. In the case of `O=C(Cc1ccc(Cl)c(Cl)c1)N1CCN(C(=O)c2cnoc2)[C@@H]2COC[C@H](N3CCCC3)[C@H]21` (racemic) [rac-5A124], the IC50 is reported as 433 nM. In the case of `O=C(Cc1ccc(Cl)c(Cl)c1)N1CCN(C(=O)C2(O)CCOC2)[C@@H]2COC[C@H](N3CCCC3)[C@H]21` (single isomer, unassigned) [Example 5A139A], the IC50 is reported as 310 nM. `O=C(O)CN1CCN(C(=O)Cc2ccc(Cl)c(Cl)c2)[C@H]2[C@H]1COC[C@@H]2N1CCCC1` (racemic) [rac-5A88] gave an IC50 of 2000 nM.

Same assay, conditions: Binding IC50 (nM), Table D; 1.0 nM [3H]U69,593, 60 min 30° C.
`NC(=O)CN1CCN(C(=O)Cc2ccc(Cl)c(Cl)c2)[C@H]2[C@H]1COC[C@@H]2N1CCCC1` (racemic) [rac-5A102] showed an IC50 of 90 nM. Compound `O=C(Cc1ccc(Cl)c(Cl)c1)N1CCN(C(=O)CO)[C@@H]2COC[C@H](N3CCCC3)[C@H]21` (single isomer, unassigned) [Example 5A95A] has an IC50 of 46 nM. In the case of `O=C(Cc1ccc(Cl)c(Cl)c1)N1CCN(Cc2cccc(F)c2)[C@@H]2COC[C@H](N3CCCC3)[C@H]21` (single isomer, unassigned) [Example 5A145A], the IC50 is reported as 23 nM. Compound `O=C(Cc1ccc(Cl)c(Cl)c1)N1CCN(Cc2ncccn2)[C@@H]2COC[C@H](N3CCCC3)[C@H]21` (racemic) [rac-5A69] has an IC50 of 191 nM. `O=C(Cc1ccc(Cl)c(Cl)c1)N1CCN(CCC2COC2)[C@H]2COC[C@@H](N3CCCC3)[C@@H]21` (single isomer, unassigned) [Example 5A142B] was tested, and the IC50 was 1480 nM. Work on `O=C(Cc1ccc(Cl)c(Cl)c1)N1CCN(C(=O)C2(O)CC2)[C@@H]2COC[C@H](N3CCCC3)[C@H]21` (single isomer, unassigned) [Example 5A126A] yielded an IC50 of 27 nM. In the case of `O=C(Cc1ccc(Cl)c(Cl)c1)N1CCN(Cc2ncon2)[C@@H]2COC[C@H](N3CCCC3)[C@H]21` (racemic) [rac-5A100], the IC50 is reported as 22 nM. In the case of `O=C(Cc1ccc(Cl)c(Cl)c1)N1CCN(CC2COC2)[C@@H]2COC[C@H](N3CCCC3)[C@H]21` (single isomer, unassigned) [Example 5A83A], the IC50 is reported as 117 nM. Work on `O=C(Cc1ccc(Cl)c(Cl)c1)N1CCN(S(=O)(=O)CCO)[C@@H]2COC[C@H](N3CCCC3)[C@H]21` (single isomer, unassigned) [Example 5A140A] yielded an IC50 of 9.5 nM. Work on `CS(=O)(=O)CCN1CCN(C(=O)Cc2ccc(Cl)c(Cl)c2)[C@H]2[C@H]1COC[C@@H]2N1CCCC1` (racemic) [rac-5A94] yielded an IC50 of 177 nM. `COCCS(=O)(=O)N1CCN(C(=O)Cc2ccc(Cl)c(Cl)c2)[C@H]2[C@H](N3CCCC3)COC[C@@H]21` (single isomer, unassigned) [Example 5A146B] gave an IC50 of 17 nM. Compound `O=C(Cc1ccc(Cl)c(Cl)c1)N1CCN(Cc2cccnc2)[C@@H]2COC[C@H](N3CCCC3)[C@H]21` (racemic) [rac-5A81] has an IC50 of 18.7 nM. `O=C(CN1CCN(C(=O)Cc2ccc(Cl)c(Cl)c2)[C@H]2[C@H]1COC[C@@H]2N1CCCC1)N1CCCC1` (racemic) [rac-5A113] showed an IC50 of 198 nM. For `O=C(Cc1ccc(Cl)c(Cl)c1)N1CCN(Cc2ccccn2)[C@@H]2COC[C@H](N3CCCC3)[C@H]21` (racemic) [rac-5A80], the IC50 was 67 nM. `O=C(Cc1ccc(Cl)c(Cl)c1)N1CCN(C(=O)c2ccno2)[C@@H]2COC[C@H](N3CCCC3)[C@H]21` (racemic) [rac-5A121] was tested, and the IC50 was 34 nM. `CC(C)(O)CN1CCN(C(=O)Cc2ccc(Cl)c(Cl)c2)[C@H]2[C@H]1COC[C@@H]2N1CCCC1` (single isomer, unassigned) [Example 5A90A] was tested, and the IC50 was 28 nM. `O=C(Cc1ccc(Cl)c(Cl)c1)N1CCN(C(=O)c2cn[nH]c2)[C@@H]2COC[C@H](N3CCCC3)[C@H]21` (racemic) [rac-5A123] showed an IC50 of 159 nM. Work on `CC(F)(F)CN1CCN(C(=O)Cc2ccc(Cl)c(Cl)c2)[C@H]2[C@H]1COC[C@@H]2N1CCCC1` [Example 5A127A] yielded an IC50 of 6.2 nM. For `CC(C)(O)C(=O)N1CCN(C(=O)Cc2ccc(Cl)c(Cl)c2)[C@H]2[C@H]1COC[C@@H]2N1CCCC1` [Example 5A96A], the IC50 was 31 nM. `O=C(Cc1ccc(Cl)c(Cl)c1)N1CCN(Cc2ccc(F)cc2)[C@H]2COC[C@@H](N3CCCC3)[C@@H]21` (single isomer, unassigned) [Example 5A136B] gave an IC50 of 6.9 nM. For `O=C(Cc1ccc(Cl)c(Cl)c1)N1CCN(C(=O)C2(O)CCCC2)[C@@H]2COC[C@H](N3CCCC3)[C@H]21` (single isomer, unassigned) [Example 5A125A], the IC50 was 258 nM. Compound `CN(C)S(=O)(=O)N1CCN(C(=O)Cc2ccc(Cl)c(Cl)c2)[C@H]2[C@H]1COC[C@@H]2N1CCCC1` (single isomer, unassigned) [Example 5A56A] has an IC50 of 7.2 nM. Work on `O=C(Cc1ccc(Cl)c(Cl)c1)N1CCN(CC2CCCO2)[C@H]2COC[C@@H](N3CCCC3)[C@@H]21` (single isomer, unassigned) [Example 5A138B] yielded an IC50 of 73 nM. Work on `O=C(Cc1ccc(Cl)c(Cl)c1)N1CCN(CCCO)[C@@H]2COC[C@H](N3CCCC3)[C@H]21` (racemic) [rac-5A75] yielded an IC50 of 60 nM. With `O=C(Cc1ccc(Cl)c(Cl)c1)N1CCN(CCO)[C@@H]2COC[C@H](N3CCCC3)[C@H]21` (single isomer, unassigned) [Example 5A74A] the IC50 was 15 nM. `Cc1nnc(CN2CCN(C(=O)Cc3ccc(Cl)c(Cl)c3)[C@H]3[C@H]2COC[C@@H]3N2CCCC2)o1` (racemic) [rac-5A118] showed an IC50 of 76 nM. In the case of `O=C(Cc1ccc(Cl)c(Cl)c1)N1CCN(CCC2COC2)[C@@H]2COC[C@H](N3CCCC3)[C@H]21` (single isomer, unassigned) [Example 5A142A], the IC50 is reported as 88 nM. `O=C(Cc1ccc(Cl)c(Cl)c1)N1CCN(C(=O)c2ccon2)[C@@H]2COC[C@H](N3CCCC3)[C@H]21` (racemic) [rac-5A97] was tested, and the IC50 was 12 nM. `COCCS(=O)(=O)N1CCN(C(=O)Cc2ccc(Cl)c(Cl)c2)[C@H]2[C@H]1COC[C@@H]2N1CCCC1` (single isomer, unassigned) [Example 5A146A] was tested, and the IC50 was 42 nM. In the case of `O=C(Cc1ccc(Cl)c(Cl)c1)N1CCN(Cc2ccon2)[C@H]2COC[C@@H](N3CCCC3)[C@@H]21` [Example 5A86B], the IC50 is reported as 23 nM. With `CN(C)S(=O)(=O)N1CCN(C(=O)Cc2ccc(Cl)c(Cl)c2)[C@H]2[C@H](N3CCCC3)COC[C@@H]21` (single isomer, unassigned) [Example 5A56B] the IC50 was 113 nM. Work on `CCNC(=O)CN1CCN(C(=O)Cc2ccc(Cl)c(Cl)c2)[C@H]2[C@H]1COC[C@@H]2N1CCCC1` (racemic) [rac-5A112] yielded an IC50 of 254 nM. Compound `O=C(Cc1ccc(Cl)c(Cl)c1)N1CCN(CC2COC2)[C@H]2COC[C@@H](N3CCCC3)[C@@H]21` (single isomer, unassigned) [Example 5A83B] has an IC50 of 10 nM. Work on `CC(C)(O)CN1CCN(C(=O)Cc2ccc(Cl)c(Cl)c2)[C@H]2[C@H](N3CCCC3)COC[C@@H]21` (single isomer, unassigned) [Example 5A90B] yielded an IC50 of 11 nM. With `COCCN1CCN(C(=O)Cc2ccc(Cl)c(Cl)c2)[C@H]2[C@H]1COC[C@@H]2N1CCCC1` (single isomer, unassigned) [Example 5A141A] the IC50 was 90 nM. In the case of `O=C(Cc1ccc(Cl)c(Cl)c1)N1CCN(CC2CCCO2)[C@H]2COC[C@@H](N3CCCC3)[C@@H]21` (single isomer, unassigned) [Example 5A138D], the IC50 is reported as 87 nM. With `O=C(Cc1ccc(Cl)c(Cl)c1)N1CCN(Cc2cn[nH]c2)[C@@H]2COC[C@H](N3CCCC3)[C@H]21` (racemic) [rac-5A107] the IC50 was 11 nM. `O=C(Cc1ccc(Cl)c(Cl)c1)N1CCN(Cc2ccn[nH]2)[C@@H]2COC[C@H](N3CCCC3)[C@H]21` (racemic) [rac-5A108] showed an IC50 of 16 nM. Compound `N#CCN1CCN(C(=O)Cc2ccc(Cl)c(Cl)c2)[C@H]2[C@H]1COC[C@@H]2N1CCCC1` (racemic) [rac-5A87] has an IC50 of 16 nM. `O=C(Cc1ccc(Cl)c(Cl)c1)N1CCN(C(=O)CO)[C@H]2COC[C@@H](N3CCCC3)[C@@H]21` (single isomer, unassigned) [Example 5A95B] showed an IC50 of 308 nM. `O=C(Cc1ccc(Cl)c(Cl)c1)N1CCN(CC2CCOC2)[C@@H]2COC[C@H](N3CCCC3)[C@H]21` (stereo partly drawn) [Example 5A93] was tested, and the IC50 was 110 nM. `O=C(Cc1ccc(Cl)c(Cl)c1)N1CCN(C(=O)C2(O)CC2)[C@H]2COC[C@@H](N3CCCC3)[C@@H]21` (single isomer, unassigned) [Example 5A126B] showed an IC50 of 28 nM. Compound `O=C(Cc1ccc(Cl)c(Cl)c1)N1CCN(C(=O)c2cc[nH]n2)[C@@H]2COC[C@H](N3CCCC3)[C@H]21` (racemic) [rac-5A122] has an IC50 of 78 nM. Work on `O=C(Cc1ccc(Cl)c(Cl)c1)N1CCN(Cc2cocn2)[C@@H]2COC[C@H](N3CCCC3)[C@H]21` (racemic) [rac-5A109] yielded an IC50 of 61 nM. In the case of `CC(O)CN1CCN(C(=O)Cc2ccc(Cl)c(Cl)c2)[C@H]2[C@H]1COC[C@@H]2N1CCCC1` (stereo partly drawn) [Example 5A89], the IC50 is reported as 14 nM. Compound `CC(C)(O)C(=O)N1CCN(C(=O)Cc2ccc(Cl)c(Cl)c2)[C@H]2[C@H](N3CCCC3)COC[C@@H]21` [Example 5A96B] has an IC50 of 63 nM.
